{
  "source": "the supplement of paper PMC11417369",
  "note": "The other results are listed elsewhere or left out.",
  "data": [
    {"test_system": "PfHDP1 homeodomain (GST-tagged)", "test": "gcPBM binding intensity (ln(normalized median fluorescence intensity)); higher = stronger DNA binding", "in_short": "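Binding intensity is defined as the maximum Masliner-normalised natural-log median intensity across replicate spots for either probe orientation. It was measured on an Agilent 4 × 180k array of primer-extended double-stranded 36-bp intergenic genomic probes and negative controls, to which GST-tagged P. falciparum DNA-binding domains made in E. coli were applied for 1 h in 1× PBS with 1% milk, 0.2 mg/ml BSA, 0.5% salmon testes DNA and 0.03% Triton X-100. Detection was by Alexa488 anti-GST antibody and scanning at 488 nm.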", "values": [
      {"sequence": "TATATAATTAAAATAACACACATATATAAAAATATA [CACACA_site2990]", "gcPBM binding intensity (ln)": 6.43},
      {"sequence": "ATATTATAGTATATAACACACATTTTTCATAACACT [CACACA_site6331]", "gcPBM binding intensity (ln)": 6.34},
      {"sequence": "TGGCAAAATAGGCACACACACATATACATATATATT [CACACA_site1059]", "gcPBM binding intensity (ln)": 6.77},
      {"sequence": "GTATATATATTTCTTTAATAATTAAATTATAAATAT [CACACA_negctrl_site640]", "gcPBM binding intensity (ln)": 6.73},
      {"sequence": "ATATTATTCTTATATTCACACAGTTTATATTTCCGT [CACACA_site5653]", "gcPBM binding intensity (ln)": 6.68},
      {"sequence": "AAATTACATACACGCGCACACACAAAAAAAAAAAAA [CACACA_site1335]", "gcPBM binding intensity (ln)": 7.24},
      {"sequence": "TAAATTAAATATTATAAACACACATATATATTATTT [CACACA_site8189]", "gcPBM binding intensity (ln)": 6.35},
      {"sequence": "TTAAAAAATTATTGTAGTACATAGGAAATGAAAAAA [XGTACX_site155]", "gcPBM binding intensity (ln)": 6.85},
      {"sequence": "TATATACATAAAATTTGTACATATATATATATATAT [XGTACX_site3214]", "gcPBM binding intensity (ln)": 9.32},
      {"sequence": "AAAAAAAAAAAATGAGCACACATAAATAAAAACAAA [CACACA_site8447]", "gcPBM binding intensity (ln)": 7.11},
      {"sequence": "ATATAAATAAATACAACACACATGTCATATCTAAAT [CACACA_site7533]", "gcPBM binding intensity (ln)": 6.45},
      {"sequence": "ATATATATATATAGTTGTACTTAATTTTATATGTTA [XGTACX_site5256]", "gcPBM binding intensity (ln)": 9.11},
      {"sequence": "CCTTGATATATATAAAGTACATATATATATATATAT [XGTACX_site4325]", "gcPBM binding intensity (ln)": 9.38},
      {"sequence": "GTGAAATTATTTCCGTGTACACATAAATATATATTT [XGTACX_site3989]", "gcPBM binding intensity (ln)": 7.34},
      {"sequence": "TTTTACAAATATTACTGTACACATTTTCATATAATT [XGTACX_site17]", "gcPBM binding intensity (ln)": 6.81},
      {"sequence": "AAACTTATAAAAAGTAGTACCATAAAATAATACATA [XGTACX_site6523]", "gcPBM binding intensity (ln)": 5.83},
      {"sequence": "TGTTGTATATCTCTATATAGCTATATTGTATATATA [TGCATGCA_negctrl_site323]", "gcPBM binding intensity (ln)": 6.62},
      {"sequence": "TATATTATTTATTAGACACACATTATTAAAATATTT [CACACA_site4737]", "gcPBM binding intensity (ln)": 6.27},
      {"sequence": "ATTAACACATTTAAGTGTACATATATAAATATATAT [XGTACX_site7098]", "gcPBM binding intensity (ln)": 6.48},
      {"sequence": "TATACATTATTATTATGTACTTAAATATATATTATA [XGTACX_site5173]", "gcPBM binding intensity (ln)": 6.05},
      {"sequence": "TGTGCACGTTCTGTGACACACATTTAAATGTGCTTA [CACACA_site176]", "gcPBM binding intensity (ln)": 8.91},
      {"sequence": "ATATAACTCAAGGGCACACATATACCTTTCCTTTTT [CACACA_site4390]", "gcPBM binding intensity (ln)": 6.66},
      {"sequence": "GAAACAAAATTATTTTGTACATATGACTGTAGATAT [XGTACX_site972]", "gcPBM binding intensity (ln)": 6.83},
      {"sequence": "GGAACGTATATTTTCACACACTCTCAAAAGTACAAG [CACACA_site2301]", "gcPBM binding intensity (ln)": 6.52},
      {"sequence": "TATATAAAACATGGGTGTACCAACATAAATCATATA [XGTACX_site2320]", "gcPBM binding intensity (ln)": 6.36},
      {"sequence": "TTGAATATGGTTACATGTACGTATCAATATTTTTTA [XGTACX_site4247]", "gcPBM binding intensity (ln)": 6.19},
      {"sequence": "AATTGTGCATTATATTGTACACGTGTTGTATATATT [XGTACX_site975]", "gcPBM binding intensity (ln)": 10.8},
      {"sequence": "AATACACGCAGACACACACACAAAAAAAAAAAAAAA [CACACA_site6384]", "gcPBM binding intensity (ln)": 6.48},
      {"sequence": "ATTTTGTTATGAAACACACACATATAAATATAAATA [CACACA_site7679]", "gcPBM binding intensity (ln)": 6.63},
      {"sequence": "GTAAGAACACTTTTGTGGTTACTTAAAAGTGTATAT [GTGCAC_negctrl_site422]", "gcPBM binding intensity (ln)": 6.21},
      {"sequence": "TTATTATTTTTTAACACACACATATATATTATATCT [CACACA_site4906]", "gcPBM binding intensity (ln)": 6.87},
      {"sequence": "ATTTCAACAAATATAACACACAATGGATAAGAATAA [CACACA_site1974]", "gcPBM binding intensity (ln)": 7},
      {"sequence": "TTAGTTTCCCAAATATGTACATAAATATAAATCATA [XGTACX_site2746]", "gcPBM binding intensity (ln)": 6.67},
      {"sequence": "AATACAGTTAGAGAAAGTACACAACTAATATACATA [XGTACX_site8814]", "gcPBM binding intensity (ln)": 6.42},
      {"sequence": "TGCTTATATGTTGTTACACACTAAAATAGTTAGATA [CACACA_site1277]", "gcPBM binding intensity (ln)": 6.67},
      {"sequence": "ACATATATTTCAAAGTGTACGCACAATTTTTTTTAC [XGTACX_site6166]", "gcPBM binding intensity (ln)": 7.01},
      {"sequence": "AACATATATATAATATGTACATAATATATATAAATG [XGTACX_site1161]", "gcPBM binding intensity (ln)": 6.6},
      {"sequence": "AATATGTGAATATAATCACACACAATACGGAAACAC [CACACA_site8875]", "gcPBM binding intensity (ln)": 7.62},
      {"sequence": "AAAGAAGGATAATAATGTACAAGCAAAAAAATAAAA [XGTACX_site466]", "gcPBM binding intensity (ln)": 7.02},
      {"sequence": "CTTTTTTTAATGATAACACACATGTTGTGCATAGAC [CACACA_site3270]", "gcPBM binding intensity (ln)": 10.7},
      {"sequence": "AAATAATTATTTATCACACATATGTATTTATATATA [CACACA_site4589]", "gcPBM binding intensity (ln)": 6.66},
      {"sequence": "TACTTTACTAATATATATAGGAGAGTATACATGAAA [CACACA_negctrl_site63]", "gcPBM binding intensity (ln)": 6.8},
      {"sequence": "ATAAAGTAGATATTTTGTACGCAGGTTGTATATATT [XGTACX_site1464]", "gcPBM binding intensity (ln)": 6.81},
      {"sequence": "GGAATTATAATAAATGGTACACATAAAAAAAAAAAA [XGTACX_site8343]", "gcPBM binding intensity (ln)": 6.59}
    ]}
  ]
}
